Assay results from PubChem BioAssay AID624170 (National Center for Advancing Translational Sciences (NCATS), 2012).
In all, about 410,000 compounds went through this assay and about 850 (0.21%) were called active. The inconclusive results got no clear call from the source; some entries with a clear call stand among them for comparison. Calls come from the whole dose curve; as a rule, active = well fitted inhibition curve with a large enough effect; inconclusive = small, poorly fitted or top-dose-only effect, or another doubt; inactive = no such curve, though single readings can be large or run the other way. No potency is given beside an inconclusive call; the fits are too rough.

What follows are compounds tested against Glutaminase kidney isoform, mitochondrial (Homo sapiens) (UniProt O94925) (assay: qHTS for Inhibitors of Glutaminase (GLS)). Conditions: GLS enzymatic activity, qHTS titration; series mostly up to 45.5 µM; activity change, negative = inhibition: at the top concentration.
Summary of the method: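 Coupled fluorescence readout: glutamate oxidase/HRP/Amplex Red detect glutamate formed by hKGA from L-glutamine (1 mM solution added). Buffer 45 mM KH2PO4 pH 8.2, 0.02% Tween-20; reads at t0 and 30 min RT.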
% is set by controls: 0 for no effect and ±100 for the full control effect; potency is the fitted concentration of half-maximal effect; tags give direction and shape of the fitted curve.

Sequence of UniProt O94925 (O94925 whole entry, looked up, canonical isoform): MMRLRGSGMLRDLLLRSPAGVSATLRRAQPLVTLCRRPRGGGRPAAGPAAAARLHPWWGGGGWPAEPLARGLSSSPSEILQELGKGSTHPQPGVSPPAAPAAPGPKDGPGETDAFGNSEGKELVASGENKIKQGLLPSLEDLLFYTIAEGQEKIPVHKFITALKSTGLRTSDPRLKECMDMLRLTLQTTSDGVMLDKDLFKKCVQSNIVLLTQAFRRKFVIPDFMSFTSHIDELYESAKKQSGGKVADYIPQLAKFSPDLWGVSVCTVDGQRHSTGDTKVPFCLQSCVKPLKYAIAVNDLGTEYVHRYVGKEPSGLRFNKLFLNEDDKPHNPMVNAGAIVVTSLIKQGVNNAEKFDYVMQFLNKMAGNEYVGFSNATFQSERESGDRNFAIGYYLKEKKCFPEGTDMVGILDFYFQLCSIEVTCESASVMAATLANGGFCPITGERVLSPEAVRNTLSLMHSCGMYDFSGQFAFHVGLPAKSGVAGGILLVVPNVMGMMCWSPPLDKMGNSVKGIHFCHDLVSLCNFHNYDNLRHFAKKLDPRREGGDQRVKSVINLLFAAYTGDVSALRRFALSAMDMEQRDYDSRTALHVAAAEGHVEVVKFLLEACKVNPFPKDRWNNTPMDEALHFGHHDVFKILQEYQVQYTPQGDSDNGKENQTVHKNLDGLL

SMILES | Potency | activity change, negative = inhibition
CCSCC(C)(C)n1[nH]c2ccccc2c1=O | inconclusive [inhibitor, partial curve] | –
Clc1ccccc1OCc1nc(-c2ccncc2)no1 | inconclusive [inhibitor, single point] | –
NNc1nc(-c2ccccc2)c2cc(Cl)ccc2n1 | inconclusive [inhibitor, partial curve, poor fit] | –
O=C(Nc1ccc(CN2CCCCC2)cc1)c1sc2ccccc2c1Cl | inconclusive [inhibitor, partial curve, poor fit] | –
Cc1cc(C)cc(OCC(=O)OCCN2C(=O)c3ccccc3C2=O)c1 | – | inactive: 3.96%
O=C(CN1C(=O)/C(=C/c2ccco2)SC1=S)Nc1ccc(C(=O)O)c(O)c1 | active: 22.4 µM | –
O=C(COC(=O)c1ccccc1Nc1ccc(SC(F)F)cc1)NCc1ccco1 | – | inactive: 9.37%
CCOC(=O)N1CCC(=NNc2ncc(C(F)(F)F)cc2Cl)CC1 | inconclusive [inhibitor, partial curve, poor fit] | –
COc1ccc(NC(=O)c2cccs2)cn1 | inconclusive [inhibitor, partial curve, poor fit] | –
Cc1cccc(NC(=O)/C=C/c2ccc([N+](=O)[O-])s2)c1 | – | inactive: -0.0046%
O=C1CSC(=S)N1/N=C/c1ccc(C(F)(F)F)cc1 | inconclusive [inhibitor, partial curve] | –
CCOc1cc(/C=N/NC(=O)CN2CCCCC2)ccc1O | inconclusive [inhibitor, partial curve] | –
Cn1c(-c2ccccc2)cc(=NNS(C)(=O)=O)c2cc(S(=O)(=O)O)ccc21 | inconclusive [inhibitor, partial curve, poor fit] | –
Cc1ccc(NS(=O)(=O)c2ccc(NC(=O)C(C)Sc3ccc(Cl)cc3)cc2)c(C)c1 (centres undefined) | – | inactive: 7.43%
COc1ccc2ccccc2c1/C=N/N1C(=O)CSC1=S | inconclusive [inhibitor, single point] | –
COCCCn1c(=S)[nH]c2sc3c(c2c1=O)CCCC3 | inconclusive [inhibitor, single point] | –
COc1ccc(C(=O)CC(=O)c2ccccc2O)cc1 | – | inactive: -1.79%
Clc1cccc(-c2ccc(C3Nc4cccc5cccc(c45)N3)o2)c1 | – | inactive: 9.44%
COc1cccc(/C=N/N2CCN(Cc3ccccc3)CC2)c1O | inconclusive [inhibitor, partial curve] | –
S=c1[nH]nc(-c2cc(-c3ccccc3)n[nH]2)n1/N=C/c1cccc(Cl)c1 | inconclusive [inhibitor, single point] | –
Cc1nc(-c2cccs2)sc1C(=O)NN | inconclusive [inhibitor, partial curve] | –
CC(=O)c1c(C)[nH]c(C(=O)OCc2ccc(Br)cc2)c1C | – | inactive: 6.4%

SMILES | Potency | activity change, negative = inhibition
Cc1ccc(C2=NN(C(=O)CCC(=O)O)C(c3cn(-c4ccccc4)nc3-c3ccc(C)cc3)C2)cc1 (centres undefined) | inconclusive [inhibitor, single point] | –
COC(=O)C1=C(C)NC2=C(C(=O)c3ccccc32)C1c1ccc(-c2ccc(C(=O)O)cc2)o1 (centres undefined) | inconclusive [inhibitor, single point] | –
COc1ccc(S(=O)(=O)Nc2c(O)ccc3ccccc23)cc1OC | inconclusive [inhibitor, partial curve] | –
COc1cccc(NS(=O)(=O)c2ccc3[nH]cc(C(=O)N(C)Cc4ccco4)c(=O)c3c2)c1 | inactive | –
CCOc1cc(/C=N/NC(=O)c2cc(C3CC3)[nH]n2)ccc1O | inconclusive [inhibitor, single point] | –
COc1ccc(C(=O)Nc2ccc3c(c2)N(C)C(=O)c2ccccc2S3)cc1OC | – | inactive: -5.47%
COc1cc2c(c3oc(=O)cc(CC(=O)O)c13)CCC(C)(C)O2 | inconclusive [inhibitor, partial curve, poor fit] | –
COC(=O)c1c(-c2cccnc2)csc1NC(=O)c1cc(C)on1 | – | inactive: 5.31%
CC1CC(=O)c2c(cc3c(-c4c(O)cc(O)c5c(O)c6c(cc45)OC(C)CC6=O)c(O)cc(O)c3c2O)O1 (centres undefined) | inconclusive [inhibitor, full curve] | –
CN(C(=O)CC1C(=O)NCCN1Cc1ccccc1C(F)(F)F)C1CCOCC1 (centres undefined) | – | inactive: 3.16%
Oc1ccc(C2=Nn3c(nnc3-c3ccco3)SC2)cc1O | inconclusive [inhibitor, single point] | –
NC(=O)CCC1NC(=S)N(Cc2ccccc2)C1=O (centres undefined) | inconclusive [inhibitor, single point] | –
O=C(O)c1ccc(Cl)c(S(=O)(=O)Nc2ccccc2C(=O)Nc2ccc(Cl)cc2)c1 | inconclusive [inhibitor, single point] | –
CCn1c(N2CCN(Cc3ccc([N+](=O)[O-])cc3)CC2)nc2ccccc21 | inconclusive [inhibitor, partial curve, poor fit] | –
CC1(C)Cc2ccccc2C(NNC(=O)c2ccccc2)=N1 | inconclusive [inhibitor, partial curve, poor fit] | –
O=C(NNC(=O)C1CCC1)c1ccc(F)cc1 | – | inactive: -0.361%
CCCN(CC(=O)Nc1ccc(Cl)cc1Cl)Cc1cc(=O)n2ccsc2n1 | inconclusive [inhibitor, single point] | –
CCc1cc(CN2CCOCC2)c(NC(=O)c2ccccc2)s1 | inconclusive [inhibitor, partial curve] | –
CC1(C)CNc2cc(N)ccc2S1 | inconclusive [inhibitor, partial curve] | –
Cc1cccc(C)c1NC(=S)NCCc1ccc(O)c(O)c1 | active: 3.98 µM | –
O=c1[nH]c(C2CCN(S(=O)(=O)c3ccc4c(c3)OCCO4)CC2)nc2c1nnn2Cc1cccc(F)c1 | inconclusive [inhibitor, partial curve, poor fit] | –
CC1CC(=O)N(c2ccc(NCc3ccc(Cl)cc3)c([N+](=O)[O-])c2)C1=O (centres undefined) | – | inactive: 3.09%
